Each block holds one binder with its values, some of them ahead of it.
What was measured:
[1] = target: T1, soluble form of the extracellular domain of human CD40 (Creative BioMart) (human, UniProt P25942 fragment); test: SPR
T1 construct: Bought

human mesothelin = target: T2, human mesothelin (human, UniProt Q13421 296-580, limits assumed); test: SPR
T2 construct: also called Human MSLN

[2] = target: T3, soluble form of the extracellular domain of cynomolgus (cyno) CD40 (Creative BioMart) (cynomolgus, UniProt G7PG38 21-193); test: SPR
T3 construct: extracellular domain; also called Cynomolgus CD40

cynomolgus mesothelin = target: T4, cynomolgus mesothelin (cynomolgus); test: SPR
T4 construct: also called cynoMSLN; Cyno MSLN

[3] = target: CD40 (binding assays of Example 4; species and form not stated) (UniProt P25942 fragment, limits assumed); test: antigen binding, method not stated
[4] = target: human CD40 on cells (HEK293 transfectants, HEK-Blue CD40 reporter cells, human B cells, moDC, PBMC) (human, UniProt P25942 21-277); test: cell-based or functional assay

Sequence of human mesothelin (Q13421 other isoform, or with tags, fused parts or gaps limits assumed): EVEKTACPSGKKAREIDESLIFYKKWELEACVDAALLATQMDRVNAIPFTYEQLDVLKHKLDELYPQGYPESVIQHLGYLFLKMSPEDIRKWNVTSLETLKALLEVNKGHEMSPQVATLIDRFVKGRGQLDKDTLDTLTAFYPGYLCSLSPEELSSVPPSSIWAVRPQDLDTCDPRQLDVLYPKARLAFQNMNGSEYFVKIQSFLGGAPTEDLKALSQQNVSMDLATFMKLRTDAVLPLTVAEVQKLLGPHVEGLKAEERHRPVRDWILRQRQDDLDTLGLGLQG

B2: V5-2 (bispecific antibody)
chain: EVQLQESGPGLVKPSETLSLTCTVSGYSITSNYYWNWIRQPPGKGLEWMGYIRYDGSNNYNPSLKNRVTISRDTSKNQFSLKLSSVTAADTAVYYCARLDYWGQGTTVTVSSGGGGSGGGGSGGGGSGGGGSGGGGSGGGGSDAVMTQTPLSLSVTPGQPASISCRSSQSLENTNGNTFLNWYLQKPGQSPQLLIYRVSNRFSGVPDRFSGSGSGTDFTLKISRVEAEDVGVYYCLQVTHVPFTFGQGTKLEIKR[human IgG1 Fc with C220S V263L (EU numbers) not written out]GGGGSGGGSGGGSGGGGSSYELTQPPSVSVSPGQTASITCSGDKLGDKYASWYQQKPGQSPVLVIYQDNRRPSGIPERFSGSNSGNTATLTISGTQAMDEADYYCQAWDSDTYVFGTGTKVTVLGGGGSGGGGSGGGGSGGGGSGGGGSGGGGSEVQLVQSGAEVKKPGASVKVSCKASGDTFKRYYVHWVRQAPGQGLEWMGIINPSGVSTTYAQKFQGRVTMTRDTSTSTVYMELSSLRSEDTAVYYCAEVRGSGFNYFGMDVWGQGTLVTVSS
Kd [1]: 150 nM
koff [1]: 0.25 s⁻¹
kon [1]: 1.7e+06 M⁻¹ s⁻¹
Kd (human mesothelin): 2 nM
koff (human mesothelin): 2.8e-05 s⁻¹
kon (human mesothelin): 14000 M⁻¹ s⁻¹
Kd (cynomolgus mesothelin): 0.84 nM
koff (cynomolgus mesothelin): 5.9e-05 s⁻¹
kon (cynomolgus mesothelin): 70000 M⁻¹ s⁻¹
Kd [2]: 120 nM
koff [2]: 0.11 s⁻¹
kon [2]: 940000 M⁻¹ s⁻¹

B4: V6-6 (bispecific antibody)
chain: EVQLQESGPGLVKPSETLSLTCTVSGYSITSNYYWNWIRQPPGKGLEWMGYIRYDGSNNYNPSLKNRVTISRDTSKNQFSLKLSSVTAADTAVYYCARLDYWGQGTTVTVSSGGGGSGGGGSGGGGSGGGGSGGGGSGGGGSDAQMTQSPSSLSASVGDRVTITCRSSQSLENTNGNTFLNWFQQKPGKAPKLLIYRVSNRFSGVPSRFSGSGSGTDFTLTISSLQPEDFATYYCLQVTHVPFTFGQGTKLEIKR[human IgG1 Fc with C220S V263L (EU numbers) not written out]GGGGSGGGSGGGSGGGGSSYELTQPPSVSVAPGQTARISCSGDKLGDKYASWYQQKPGQAPVLVIYQDNRRPSGIPERFSGSNSGNTATLTISGTQAEDEADYYCQAWDSDTYVFGGGTKLTVLGQGGGGSGGGGSGGGGSGGGGSGGGGSGGGGSEVQLVQSGAEVKKPGASVKVSCKASGDTFKRYYVHWVRQAPGQGLEWMGIINPSGVSTTYAQKFQGRVTMTRDTSTSTVYMELSSLRSEDTAVYYCAEVRGSGFNYFGMDVWGQGTLVTVSS
Max. IL-12p70, dendritic cells with HEK293 cells expressing mesothelin [4]: 300 pg/mL

Results, then the binder that gave them:

Kd [1]: 14 nM
koff [1]: 0.014 s⁻¹
kon [1]: 970000 M⁻¹ s⁻¹
Kd (human mesothelin): 11 nM
koff (human mesothelin): 0.0015 s⁻¹
kon (human mesothelin): 130000 M⁻¹ s⁻¹
Kd [2]: 11 nM
koff [2]: 0.013 s⁻¹
kon [2]: 1.3e+06 M⁻¹ s⁻¹
B1: V6-8 (bispecific antibody)
chain: EVQLQESGPGLVKPSETLSLTCTVSGYSITSNYYWNWIRQPPGKGLEWMGYIRYDGSNNYNPSLKNRVTISRDTSKNQFSLKLSSVTAADTAVYYCARLDYWGQGTTVTVSSGGGGSGGGGSGGGGSGGGGSGGGGSGGGGSDAQMTQSPSSLSASVGDRVTITCRSSQSLENTNGNTFLNWFQQKPGKAPKLLIYRVSNRFSGVPSRFSGSGSGTDFTLTISSLQPEDFATYYCLQVTHVPFTFGQGTKLEIKR[human IgG1 Fc with C220S V263L (EU numbers) not written out]GGGGSGGGSGGGSGGGGSEVQLLESGGGLVQPGGSLRLSCAASGFTFSSYAMSWVRQAPGKGLEWVSAISGGGGRTYYADSVKGRFTISRDNSKNTLYLQMNSLRAEDTAVYYCAREEMAFRAYRFDIWGQGTLVTVSSGGGGSGGGGSGGGGSGGGGSGGGGSGGGGS[about 100 residues not written out]

EC50 [3]: 0.5 µg/mL
B3: B46 (bispecific antibody, IgG1)
chain: SYELTQPPSVSVSPGQTASITCSGDKLGDKYASWYQQKPGQSPVLVIYQDNRRPSGIPERFSGSNSGNTATLTISGTQAMDEADYYCQAWDSDTYVFGTGTKVTVLGQDLSGGGGSGGGGSGGGGSGGGGSTGEVQLVQSGAEVKKPGASVKVSCKASGDTFKRYYVHWVRQAPGQGLEWMGIINPSGVSTTYAQKFQGRVTMTRDTSTSTVYMELSSLRSEDTAVYYCAEVRGSGFNYFGMDVWGQGTLVTVSS[human IgG1 Fc with C220S V273E (EU numbers) not written out]VDGASSPVNVSSPSVQDIEVQLQESGPGLVKPSETLSLTCTVSGYSITSNYYWNWIRQPPGKGLEWMGYIRYDGSNNYNPSLKNRVTISRDTSKNQFSLKLSSVTAADTAVYYCARLDYWGQGTTVTVSSDLSGGGGSGGGGSGGGGSGGGGSTGDAVMTQTPLSLSVTPGQPASISCRSSQSLENTNGNTFLNWYLQKPGQSPQLLIYRVSNRFSGVPDRFSGSGSGTDFTLKISRVEAEDVGVYYCLQVTHVPFTFGQGTKLEIKR
notes: HuAM15 (VL-VH) N-terminal, huAb9-5 (VH-VL) C-terminal, huIgG1 V273E
